Data reported in PubChem BioAssay AID485341 (National Center for Advancing Translational Sciences (NCATS), 2010).
In all, about 330,000 compounds went through this assay and about 1,700 (0.52%) were called active. Inconclusive means that the source gave no clear call. Such entries were picked first, then a sample of the others. Calls follow the shape of the dose curve; as a rule, active = well fitted inhibition curve with a large enough effect; inconclusive = small, poorly fitted or top-dose-only effect; inactive = no such curve, though single readings can be large or run the other way. Potencies of inconclusive entries are doubtful fits and often do not repeat. Peptide text beside a SMILES is read from it.

target: Beta-lactamase (Escherichia coli (strain K12)) (UniProt P00811); assay: qHTS Inhibitors of AmpC Beta-Lactamase (assay without detergent); details: AmpC nitrocefin hydrolysis, absorbance 480 nm, 0.0001% Triton; series mostly up to 57.1 µM; also: nearly all actives have a fitted effect of over 20% in size
Chain of UniProt P00811 (P00811 whole entry, looked up): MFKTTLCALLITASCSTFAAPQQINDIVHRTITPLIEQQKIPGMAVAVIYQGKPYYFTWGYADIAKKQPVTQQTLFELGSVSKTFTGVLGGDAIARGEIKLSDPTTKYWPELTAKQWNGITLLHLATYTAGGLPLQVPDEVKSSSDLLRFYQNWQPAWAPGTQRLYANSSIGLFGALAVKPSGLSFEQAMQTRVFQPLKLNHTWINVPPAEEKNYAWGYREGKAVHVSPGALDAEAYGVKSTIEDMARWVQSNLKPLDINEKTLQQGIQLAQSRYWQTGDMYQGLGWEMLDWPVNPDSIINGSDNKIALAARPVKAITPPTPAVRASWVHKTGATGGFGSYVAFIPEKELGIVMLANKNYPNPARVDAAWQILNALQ
Experimental: NIH Molecular Libraries Probe Production Network [MLPCN] NIH Chemical Genomics Center [NCGC] Assay Provider: Professor Brian Shoichet, UCSF Assay Overview: This aggregation profiling approach exploits the sensitivity of aggregate formation to detergent. Inhibition of b-lactamase is measured in the presence and absence of 0.01% Triton X-100. This particular assay had the prescence of 0.01% Triton X-100. See Pubchem assay "Promiscuous and Specific Inhibitors of AmpC Beta-Lactamase (assay without detergent)" for related screen. Compounds that inhibit only in the absence of detergent are considered likely promiscuous aggregators. A screen of 1,030 compounds was performed in Brian Shoichet's lab in 96-well format. AmpC activity was measured by following the absorbance at 480 nm. Nitrocefin is a chromogenic substrate: while nitrocefin is yellow (lmax 390 nm), the product of its hydrolysis is red (lmax 486 nm, 17,000 M-1). AmpC beta lactamase was provided by Shoichet Lab, UCSF.
Buffer: 20 mM phosphate buffer, pH 7.0 Triton X-100: No Detergent screen: 0.0001%, Detergent screen: 0.01%. Reagents/Controls: Buffer in columns 3 and 4 as negative control (no enzyme). 5.3 nM AmpC in columns 1, 2, 5-48. Titration of UCSF compound 9 control (from 10 mM, then 1:2) pin-transferred to column 2. Column 1 is neutral (100% activity). Assay Steps: Six uL of reagents were dispensed to 1536-well Greiner black clear bottom plates. Compounds and controls (23 nL) were transferred via Kalypsys PinTool. The plates were incubated for 15 min at room temperature, and then 2 uL of 800 uM solution of nitrocefin was added to start the reaction. The plates were immediately transferred to and read every 20 seconds for 4 min on ViewLux (Perkin-Elmer) High-throughput CCD imager using 480 nm absorbance protocol. During dispense, reagent bottles were kept submerged into 4 deg C water bath. Keywords: NIH Roadmap, MLSCN, MLI, MLSMR, qHTS, NCGC, AmpC Beta-Lactamase, Aggregation
Potency is read from the fitted curve at half-maximal effect; tags tell the direction and shape of the fitted curve.

Row | SMILES | Potency
1 | CCOC(=O)c1c(C)[nH]c(NC(=O)NNC(=O)c2ccc(OC)cc2)c1C | inactive
2 | CC1CCCN(S(=O)(=O)c2ccc(NC(=O)CNC3CCCC3)cc2)C1 (stereo not given) | inactive
3 | COc1ccc(C(=O)Nc2ccccc2C(=O)O)cc1NC(=O)C(c1ccccc1)c1ccccc1 | inconclusive: 1 µM [inhibitor, full curve]
4 | O=C(/C=C/c1cccc([N+](=O)[O-])c1)Nc1ccccc1N1CCOCC1 | inconclusive: 7.94 µM [inhibitor, full curve, poor fit]
5 | CC(=O)NCc1nc2ccccc2n1C(C)C | inconclusive: 56.2 µM [inhibitor, partial curve, poor fit]
6 | O=C(N/N=C/C(Br)=C/c1ccccc1)c1cc(-c2ccco2)[nH]n1 | active: 20 µM
7 | O=C(CSc1n[nH]c(-c2ccccc2)n1)c1ccc(O)c(O)c1 | inconclusive: 2 µM [inhibitor, full curve, poor fit]
8 | CCc1c(C)nc(SCC(=O)N2CCc3ccccc32)[nH]c1=O | inconclusive: 35.5 µM [inhibitor, single point]
9 | N#CC1=C(N)Oc2n[nH]c(-c3ccncc3)c2C1c1ccsc1 (stereo not given) | inconclusive: 1.12 µM [inhibitor, partial curve, poor fit]
10 | COc1ccc(C(=O)CC(=O)C(=O)Nc2ccc(OC)c(Cl)c2)cc1 | inconclusive: 20 µM [inhibitor, partial curve]
11 | COc1cccc(NC(=O)N[C@@H](Cc2ccccc2)C(=O)O)c1 | active: 2.24 µM
12 | C=CCN(c1ccccc1)S(=O)(=O)c1cccc(C(=O)NNC(=O)c2ccccc2O)c1 | inconclusive: 2 µM [inhibitor, partial curve]
13 | CCCCNC(=O)c1cc2c(=O)n3cccc(C)c3nc2n(Cc2ccncc2)c1=N | inconclusive: 6.31 µM [inhibitor, single point]
14 | O=C(NC(NCC1CCCO1)C(Cl)(Cl)Cl)c1cccc2ccccc12 (stereo not given) | inconclusive: 6.31 µM [inhibitor, single point]
15 | CN(CC(=O)Nc1ccccc1Br)C(=O)CCCSc1nc2ccccc2[nH]1 | inconclusive: 39.8 µM [inhibitor, single point]
16 | Cc1cc(Oc2ccc(Cl)cc2)nc(-c2ccccc2O)n1 | inconclusive: 3.16 µM [inhibitor, partial curve, poor fit]
17 | Cc1ccc(CC(=O)Nc2nc3ccccc3s2)cc1 | inconclusive: 4.47 µM [inhibitor, full curve]
18 | COc1ccccc1C(=O)NC(=O)COC(=O)c1ccc(C)o1 | inconclusive: 39.8 µM [inhibitor, single point]
19 | CCOc1nc2cnccc2n(CC(=O)Nc2c(C)cccc2CC)c1=O | inactive
20 | CN1CCN(c2nc(-c3ccc(Cl)c(Cl)c3)nc3ccccc23)CC1 | inactive
21 | CC(C)[C@H](NC(=O)[C@H](CC(=O)O)NC(=O)[C@H](CCCCN)NC(=O)[C@@H](N)CCCN=C(N)N)C(=O)N[C@@H](Cc1ccc(O)cc1)C(=O)O (H-RKDVY-OH) | inconclusive: 10 µM [inhibitor, partial curve]
22 | CCCOc1cccc(C(=O)N/N=C/c2ccoc2)c1 | inactive
23 | CCOc1ccc(-c2cn(S(=O)(=O)c3cccc4nsnc34)nc2N)cc1 | inconclusive: 31.6 µM [inhibitor, single point]
24 | CC(C)CN(CC(C)C)C(=O)CS(=O)(=O)Cc1ccccc1 | inconclusive: 7.08 µM [inhibitor, partial curve, poor fit]

Row | SMILES | Potency
25 | CC1CCc2nn(CC(=O)NC3CCCC(C)C3C)cc2C1 (stereo not given) | active: 1 µM
26 | Fc1cccc(/C=C2\CCCC3=C2NC(=S)NC3c2cccc(F)c2)c1 (stereo not given) | inconclusive: 10 µM [inhibitor, partial curve]
27 | CCOc1cccc(-c2c(C(=O)N/N=C/c3ccsc3)nnn2-c2nonc2N)c1 | inconclusive: 10 µM [inhibitor, partial curve]
28 | CN(CC(=O)NCc1ccccc1Cl)S(=O)(=O)c1ccc2c(c1)n(C)c(=O)c(=O)n2C | inactive
29 | Cc1ccc(C)c(N2CCN(Cc3nnnn3C3CCCCC3)CC2)c1 | inconclusive: 6.31 µM [inhibitor, single point]
30 | COc1ccc(CCOC(=O)c2ccc(NC(=O)CC#N)cc2)cc1 | inconclusive: 7.94 µM [inhibitor, full curve, poor fit]
31 | COc1cc(/C=C/C(=O)OCC(=O)Nc2oc(C)c3c(C)n[nH]c(=O)c23)ccc1OC(F)F | inconclusive: 35.5 µM [inhibitor, single point]
32 | Cc1ccc(SCc2[nH]nc3c2C2(C(=O)Nc4ccc(F)cc42)C(C#N)=C(N)O3)cc1 (stereo not given) | inactive
33 | COc1ccc(/C=C2\CC/C(=C\c3ccc(OC)cc3OC)C2=O)c(OC)c1 | inactive
34 | COc1ccc(OCC(=O)Nc2ccc3oc(=O)ccc3c2)cc1 | inactive
35 | CCc1cc2cc(C(=O)Nc3ccccc3F)sc2s1 | inactive
36 | O=c1cc(C(F)(F)F)[nH]c2ccccc12 | inactive
37 | Fc1cccc(Nc2cc(-n3cccn3)ncn2)c1 | inactive
38 | CC1CCc2c(sc3nc(CN4CCOCC4)nc(N4CCc5ccccc5C4)c23)C1 (stereo not given) | inactive
39 | COc1ccccc1CCNS(=O)(=O)CCNC(=O)c1ccccc1 | inconclusive: 35.5 µM [inhibitor, single point]
40 | CC(=O)NS(=O)(=O)c1ccc(NC(=O)CSc2ccccc2)cc1 | inconclusive: 25.1 µM [inhibitor, single point]
41 | COc1ccc(N2CC(C(=O)Nc3ccc4c(c3)OCO4)CC2=O)cc1 (stereo not given) | inconclusive: 6.31 µM [inhibitor, partial curve, poor fit]
42 | CC(=O)Nc1ccc(S(=O)(=O)NCc2ccc(C(=O)NC(C)c3ccccc3)cc2)cc1 (stereo not given) | inconclusive: 25.1 µM [inhibitor, single point]
43 | O=C1CSC(=S)N1/N=C/C=C/c1ccccc1 | inconclusive: 28.2 µM [inhibitor, single point]
44 | O=C(CSc1cn(CCNC(=O)c2cccs2)c2ccccc12)NC1CCCCC1 | inconclusive: 17.8 µM [inhibitor, partial curve, poor fit]
45 | COc1cc2ccccc2cc1C(=O)Nc1ccc(S(=O)(=O)Nc2cc(C)on2)cc1 | inconclusive: 10 µM [inhibitor, partial curve]
46 | CCc1nc(SCC#N)c(C#N)cc1C | inactive
47 | CC(C)(CO)NCC(=O)Nc1cc(C(F)(F)F)cc(NC(=O)CNC(C)(C)CO)c1Cl | inconclusive: 35.5 µM [inhibitor, single point]
48 | CC1CCc2[nH]c3ccc(C(=O)NCCCOC(C)C)cc3c2C1 (stereo not given) | inactive

Row | SMILES | Potency
49 | COc1ccccc1-c1ccc(SCC(=O)NC2CCCC2)nn1 | inconclusive: 35.5 µM [inhibitor, single point]
50 | CN1CCN(C(CNS(=O)(=O)c2ccc(Br)cc2)c2ccc3c(c2)OCO3)CC1 (stereo not given) | inconclusive: 35.5 µM [inhibitor, single point]
51 | OCCC1CN(C/C=C/c2ccco2)CCN1Cc1ccccc1 (stereo not given) | inactive
52 | Cc1ccc(C(C[N+](=O)[O-])c2c(C)cc3ccccn23)cc1 (stereo not given) | active: 22.4 µM
53 | O=C(CCC1COc2ccccc2O1)Nc1cccnc1 (stereo not given) | inconclusive: 0.158 µM [inhibitor, full curve, poor fit]
54 | CCN(c1ccccc1)S(=O)(=O)c1cc(NC(=O)Nc2ccccc2C#N)ccc1Cl | active: 8.91 µM
55 | c1coc(C2Nc3cccc4cccc(c34)N2)c1 | inconclusive: 31.6 µM [inhibitor, single point]
56 | O=C(CSc1nc(O)cc(=O)n1-c1ccccc1)Nc1ccccn1 | active: 11.2 µM
57 | Cc1cc(C)nc(-n2nc(C)c(Sc3ccc(F)cc3)c2N)n1 | inactive
58 | Cc1cc(C)cc(N(C(=O)c2sc(C)nc2C)C(C(=O)NCc2ccco2)c2ccccc2)c1 (stereo not given) | inconclusive: 7.08 µM [inhibitor, single point]
59 | O=C(Nc1ccc(Cl)cc1)NC1CCCCC1 | inactive
60 | COc1cccc(NS(=O)(=O)c2ccc(-n3cccn3)cc2)c1 | inconclusive: 22.4 µM [inhibitor, single point]
61 | N#CC1=C(N)Oc2cc(N)ccc2C1C1CCCCC1 (stereo not given) | inconclusive: 22.4 µM [inhibitor, single point]
62 | CCCCn1c(N)c(N(CC(C)C)C(=O)C2CCCO2)c(=O)[nH]c1=O (stereo not given) | inconclusive: 39.8 µM [inhibitor, single point]
63 | CCOc1ccc(CNC(=O)C2CCCN(S(C)(=O)=O)C2)cc1OC (stereo not given) | inconclusive: 7.08 µM [inhibitor, single point]
64 | O=C(Nc1ccc(F)cc1)c1cccc2c1C(=O)N(Cc1ccccn1)C2 | inconclusive: 3.98 µM [inhibitor, single point]
65 | COc1ccc(OC)c(N(CC(=O)Nc2ccc3c(c2)OCO3)S(=O)(=O)c2ccccc2)c1 | inconclusive: 6.31 µM [inhibitor, single point]
66 | Cc1c(C(=O)NCc2ccc3c(c2)OCO3)oc2ccc(S(=O)(=O)N3CCC(C)CC3)cc12 | inconclusive: 7.94 µM [inhibitor, full curve, poor fit]
67 | Clc1ccc(CSc2nnc(/C=C/c3ccccc3)o2)c(Cl)c1 | inconclusive: 0.794 µM [inhibitor, partial curve, poor fit]
68 | CNC(=S)N/N=C/c1ccc(OCc2ccccc2)c(Br)c1 | inconclusive: 12.6 µM [inhibitor, partial curve]
69 | CCOc1ccc(NC(=O)c2cc3c(C)nc4ccccc4c3o2)cc1 | active: 5.01 µM
70 | COc1cccc(CC(=O)OC(C)C(=O)Nc2ncc(Cl)cc2Cl)c1 (stereo not given) | inconclusive: 31.6 µM [inhibitor, single point]
